# Results reported in PubChem BioAssay AID1508642 (National Center for Advancing Translational Sciences (NCATS), 2021).
# Hit rate of the full screen: of about 43,000 compounds, about 200 (0.47%) were called active. The inconclusive results got no clear call from the source; some entries with a clear call stand among them for comparison. Calls follow the shape of the dose curve; as a rule, active = well fitted cell-killing curve with a large enough effect; inconclusive = small, poorly fitted or top-dose-only effect, or effect the other way; inactive = flat fitted curve, though single readings scatter. A potency beside an inconclusive call is a rough fit, not a confirmed value.
# Test: Cell viability qHTS assay in S16 Pmp22-F2sN cells; also: nearly all actives have a fitted effect of over 65% in size
# Settings: S16 Pmp22-F2sN Schwann cells (luciferase reporters placed in the Pmp22 gene) viability, CellTiter-Glo, 24 h; series mostly up to 57.5 µM
# Outline: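 Seed 500-1,000 S16 Pmp22-F2sN cells per well in phenol-red-free DMEM with 10% heat-inactivated FBS; pin-add 23 nL compound; incubate 24 h at 37C; add CellTiter-Glo, wait 15 min protected from light; read luminescence.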
# Potency is read from the fitted curve at half-maximal effect; tags tell the direction and shape of the fitted curve.
row,SMILES,Potency
1,COc1ccc(CNC(=O)c2oc3c(c2C)-c2nn(Cc4ccccc4Cl)cc2CC3)cc1,"inconclusive: 39.8 µM [cytotoxic, partial curve, poor fit]"
2,Cc1ccc(-c2nnc(Nc3ccc(Cl)cc3)c3ccccc23)cc1S(=O)(=O)NCC1CCCO1 (configuration not stated),"inconclusive: 25.1 µM [cytotoxic, single point]"
3,Cc1ccc(Nc2c(-c3ccc(N(C)C)cc3)nc3ccccn23)cc1,inactive
4,O=C(c1ccccc1)c1ccc2nc(N3CCN(c4ccc(F)cc4)CC3)c3nncn3c2c1,inactive
5,O=C(CCCn1c(=O)[nH]c2ccsc2c1=O)N1CCN(c2ccc(Cl)cc2)CC1,inactive
6,CCCOCc1cc(CN2CCN(c3ccccc3OC)CC2)c(O)c2ncccc12,active: 10 µM
7,COc1ccc(OC)c(S(=O)(=O)NCc2ccc3c(c2)CCN3C(=O)c2cccc(C)c2)c1,"inconclusive: 22.4 µM [cytotoxic, partial curve]"
8,CCOc1ccc(C(=O)Nc2ccc3nc4c(c(Nc5ccccc5OC)c3c2)CCCC4)cc1,"inconclusive: 31.6 µM [cytotoxic, single point]"
9,CC(C)CCn1c(=O)c2sccc2n2c(CCCC(=O)Nc3ccc(C(C)C)cc3)nnc12,"inconclusive: 14.1 µM [rising, partial curve, poor fit]"
10,CCOC(=O)CC(NS(=O)(=O)c1cc(-c2cc(C)no2)ccc1C)c1ccc(C)cc1 (configuration not stated),"inconclusive: 3.16 µM [cytotoxic, partial curve, poor fit]"
11,CCc1nc2ccc(C(=O)NCCc3ccc(OC)cc3OC)cc2nc1CC,"inconclusive: 39.8 µM [cytotoxic, single point]"
12,CCc1ccc(C2CC(=O)c3c([nH]c(C(=O)OCc4ccc(C)cc4)c3C)C2)cc1 (configuration not stated),"inconclusive: 22.4 µM [cytotoxic, single point]"
13,CCOC(=O)c1c(C)[nH]c(C)c1S(=O)(=O)N(C)CC(=O)N1CCN(c2cccc(Cl)c2)CC1,"inconclusive: 39.8 µM [cytotoxic, single point]"
14,Cn1c(=O)c2c(nc(N3CCOCC3)n2Cc2ccccc2)n(C)c1=O,inactive
15,Cc1ccc(C(=O)c2cn(Cc3c(F)cccc3Cl)c3nc(C)ccc3c2=O)cc1,"inconclusive: 6.31 µM [rising, partial curve, poor fit]"
16,Cc1cc(C(=O)N2CCN(c3cc(Cl)ccc3C)CC2)c2c(C)nn(-c3ccccc3)c2n1,inactive
17,CCCCc1nn2c(=O)cc(COC(=O)c3cccs3)nc2s1,"inconclusive: 14.1 µM [cytotoxic, partial curve, poor fit]"
